# Source: US20140018297A1
# Assays:
# [1] = target: FVIII (as used in the competition ELISA of Example 21; form not stated) (UniProt P00451); test: competition ELISA; competitor coated human VWF; FVIII 1 nM pre-incubated with plasma derived VWF
# [2] = target: Radioactively labelled FVIII (125I-FVIII) (UniProt P00451); test: cell-based or functional assay
IC50 [1] [nM],"IC50 (nM), inhibition of FVIII binding to U87 MG cells [2] [nM]","IC50 (nM), inhibition of FVIII internalization in U87 MG cells [2] [nM]","Maximal inhibition (%), FVIII binding to U87 MG cells [2] [%]","Maximal inhibition (%), FVIII internalization in U87 MG cells [2] [%]",Substance
1.1,–,–,–,–,"Plasma derived full length VWF, VWF ([…]) (a stretch of the chain, sequence left out)"
–,1.2,1.3,34.3,32.2,"Plasma derived full length VWF, VWF ([…]) (a stretch of the chain, sequence left out) (other; 125I label)"
